Whole data set: some 33,000 sequences, median “E-score (-0.5 to 0.5)” near -0.035, cut for the highest 2% near 0.35. The list shows a part of the results.
target: T1, Pdr3 (UniProt P33200); assay: PBM E-score (8-mer binding enrichment) (E-score (-0.5 to 0.5)); higher = stronger / more preferred TF binding; most listed sequences are background and not binding sites; conditions: protein concentration: 200 nM; construct: GST-full length
T1 sequence: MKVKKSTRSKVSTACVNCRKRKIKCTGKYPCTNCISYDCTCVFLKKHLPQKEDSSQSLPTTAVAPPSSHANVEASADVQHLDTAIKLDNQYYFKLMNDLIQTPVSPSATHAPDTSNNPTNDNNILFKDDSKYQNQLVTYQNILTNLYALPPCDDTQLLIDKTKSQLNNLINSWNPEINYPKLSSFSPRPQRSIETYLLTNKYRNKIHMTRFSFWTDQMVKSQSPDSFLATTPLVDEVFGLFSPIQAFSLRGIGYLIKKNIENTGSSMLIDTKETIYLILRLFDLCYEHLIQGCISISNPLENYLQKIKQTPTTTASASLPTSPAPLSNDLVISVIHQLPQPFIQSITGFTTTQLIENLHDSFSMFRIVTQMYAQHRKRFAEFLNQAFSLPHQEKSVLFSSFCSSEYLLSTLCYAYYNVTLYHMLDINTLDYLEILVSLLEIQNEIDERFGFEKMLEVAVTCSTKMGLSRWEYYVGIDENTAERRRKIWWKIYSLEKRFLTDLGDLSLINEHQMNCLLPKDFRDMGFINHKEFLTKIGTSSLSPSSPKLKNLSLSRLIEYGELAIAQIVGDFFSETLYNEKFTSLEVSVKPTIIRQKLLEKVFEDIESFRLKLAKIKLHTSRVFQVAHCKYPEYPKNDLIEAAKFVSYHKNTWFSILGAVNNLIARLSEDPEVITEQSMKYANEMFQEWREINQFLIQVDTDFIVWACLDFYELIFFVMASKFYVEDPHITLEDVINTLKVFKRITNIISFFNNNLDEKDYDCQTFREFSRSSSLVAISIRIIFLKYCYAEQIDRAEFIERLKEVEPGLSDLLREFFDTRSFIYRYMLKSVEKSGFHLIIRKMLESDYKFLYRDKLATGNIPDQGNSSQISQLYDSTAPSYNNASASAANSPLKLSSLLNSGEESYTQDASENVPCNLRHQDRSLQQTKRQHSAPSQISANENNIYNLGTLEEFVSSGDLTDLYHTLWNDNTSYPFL
Description: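 Universal 'all 10-mer' protein binding microarrays (Agilent AMADID 015681) probed with GST-tagged S. cerevisiae TFs (full-length or DBD) made by in vitro transcription/translation (PURExpress), about 100-200 nM. Bound TF was detected with fluorescent anti-GST. Each ungapped 8-mer (which stands for itself and its reverse complement) is scored by the PBM enrichment score (E-score), a modified Wilcoxon-Mann-Whitney statistic from -0.5 to +0.5, computed with the Universal PBM Analysis Suite. Scale: above 0.35 generally sequence-specific binding.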

| Sequence | PBM E-score |
| --- | --- |
| AGGCGTTC | -0.111 |
| ATTCGAGC | -0.133 |
| TATAGACA | -0.152 |
| GTATGAAA | 0.0233 |
| CCCCTGCC | -0.0684 |
| AACAGGGT | -0.0562 |
| TCACATGA | -0.231 |
| GAATACGA | 0.0256 |
| GGGGACAA | 0.17 |
| AACTACTG | 0.025 |
| CACGAGTA | -0.0205 |
| ATGGATAG | -0.0286 |
| ATAGACAA | 0.0285 |
| AGTTGCGC | 0.13 |
| ACCCCCCC | -0.401 |
| ACCCCGGC | 0.153 |
| CTCAAGTA | -0.327 |
| AGGCCAGC | -0.149 |
| GATAACGC | 0.155 |
| CAGATACA | -0.0526 |
| CGATAACG | -0.00956 |
| ACCAAAAT | 0.0565 |
| CATGCATC | 0.205 |
| CGCTGCCA | -0.0872 |
| GTCTTTGA | -0.253 |

| Sequence | PBM E-score |
| --- | --- |
| CCACGATC | -0.0143 |
| ACGTTTAT | -0.133 |
| AGCAGACG | 0.016 |
| TAGGTACA | -0.297 |
| CAACATCA | 0.0147 |
| CCTGCGGA | 0.259 |
| CCCAGAAA | 0.0174 |
| GGGCAAAC | 0.0305 |
| TAGCCGGA | 0.372 |
| ACGTGTGG | -0.181 |
| CTCGGCAC | 0.292 |
| CGTTCTGC | 0.189 |
| ACCAAGCC | -0.208 |
| AGTTGTGG | 0.0126 |
| AAGGCTAC | -0.267 |
| CCAAGCTA | -0.257 |
| AAATAGAG | -0.00426 |
| CGGGAACA | 0.358 |
| AACGACAG | -0.162 |
| GACGCCAA | -0.183 |
| GAAGAGTA | -0.0638 |
| AAACCGCT | -0.0883 |
| ACATGGTC | -0.107 |
| CCTGAGCC | -0.246 |
| AGTTTAAT | 0.0358 |

| Sequence | PBM E-score |
| --- | --- |
| TCTTGGCA | -0.179 |
| AATCTAAG | -0.105 |
| AAACGAGC | -0.255 |
| ACACGTCT | -0.195 |
| ATTCACCA | -0.0576 |
| CTTGTACA | -0.182 |
| CTACACCA | -0.218 |
| CCAACATC | 0.174 |
| CAGATTGA | 0.0242 |
| CAATAGTG | 0.0261 |
| GGTGGAGA | -0.137 |
| CTGGTGAC | -0.0564 |
| GGAAAGCA | 0.127 |
| CGACTTAA | -0.246 |
| CGAACTGC | 0.0677 |
| AGAAACTG | -0.0776 |
| CTCCTGCC | -0.0778 |
| GGCAATAA | 0.0401 |
| TGTCGAAA | -0.0353 |
| AGTAAGGG | 0.168 |
| ATCTAGTG | -0.157 |
| CATCCGTA | 0.282 |
| CACACGTG | -0.101 |
| GAGCACCA | -0.122 |
| CCGCCAAG | 0.0446 |

| Sequence | PBM E-score |
| --- | --- |
| CGCCTGGC | -0.0374 |
| ACAAGACG | 0.0178 |
| AGGGGTGG | 0.00354 |
| GATCAAGC | -0.00835 |
| CAAGACTG | -0.284 |
| ACAAATCT | -0.107 |
| ATACCATG | -0.0983 |
| AGGAATAA | 0.0341 |
| CCGATTTA | 0.231 |
| ACCTAAGA | -0.219 |
| ATTGGAAG | -0.152 |
| GCACAATA | -0.23 |
| GATGCGAA | -0.0214 |
| ATGTATCC | 0.0403 |
| ACCCTGCC | -0.0819 |
| GGCTCGCA | 0.0301 |
| AAGGCCGA | 0.221 |
| ACCTACGC | -0.0495 |
| AGCTGACC | 0.0186 |
| CGCGAACG | 0.0855 |
| CGGCCTCC | 0.127 |
| GAATAGGC | 0.155 |
| AAACGATC | -0.201 |
| AGGGCACA | -0.16 |
| GATCCTCA | 0.138 |

| Sequence | PBM E-score |
| --- | --- |
| AGCATGAT | -0.161 |
| GGGATCCC | 0.374 |
| ATGCCAGC | -0.22 |
| CAGTCTCA | -0.0367 |
| AGTAACAT | 0.0785 |
| ATGGACGC | 0.0671 |
| AGACGTAG | -0.233 |
| ATAAACCA | -0.187 |
| ATCGCCTC | -0.0179 |
| ACTGCCGG | 0.325 |
| AAAGTATC | 0.108 |
| GGGATGAA | 0.137 |
| AAAACTTC | -0.029 |
| AGTGCTTC | -0.102 |
| GAAGGTGA | 0.136 |
| ACTACTGA | -0.0877 |
| AGCATTAC | -0.242 |
| GAGGCATA | 0.174 |
| CATTTCAA | -0.105 |
| GCTGGAAA | 0.0777 |
| TGCCTGAA | -0.305 |
| AATCTCCG | 0.322 |
| AGGAATAG | -0.072 |
| CTCGGCCC | 0.0837 |
| ACTCACAG | -0.148 |

| Sequence | PBM E-score |
| --- | --- |
| CTCCGATC | 0.212 |
| CGTAGGCA | -0.214 |
| AATGGCTC | 0.00647 |
| CCACAATA | -0.0242 |
| CTAATTGA | -0.13 |
| GCAATCGC | -0.0755 |
| ATTGTCTA | 0.102 |
| ATCTGATA | -0.18 |
| GCATACCC | 0.0554 |
| CTCTGCCA | -0.221 |
| CTCGGACA | 0.285 |
| CCTAACTC | -0.137 |
| CAAACGTC | -0.105 |
| GCTCGTTA | -0.139 |
| ATAACAAC | 0.063 |
| ATATTAAC | 0.137 |
| CGCGGTAG | 0.282 |
| GCTACAGA | -0.282 |
| CCTGACCA | -0.0932 |
| CAGACTTA | -0.389 |
| GCGACAAA | 0.0295 |
| ACACTGAA | 0.0405 |
| ATCTCAAA | 0.0575 |
| GATATCAA | 0.069 |
| GAACTGCA | -0.0307 |

| Sequence | PBM E-score |
| --- | --- |
| TGTGGCAA | 0.0784 |
| GACTCCAA | -0.212 |
| CAAGACTA | -0.316 |
| CATGGGAG | -0.124 |
| GCGGTAAA | 0.25 |
| ACCTCCCC | 0.0305 |
| CCCGCCCG | 0.372 |
| ATACCTCC | -0.0487 |
| ACGCTCCA | -0.0863 |
| TCTCCGAA | 0.257 |
| AACATACC | -0.0381 |
| AGATTGAA | -0.0668 |
| TCATACCA | 0.0464 |
| ACAGGATA | -0.177 |
| GCTGACAA | 0.0279 |
| AAAATCCC | 0.0702 |
| CTTGCAAC | -0.15 |
| ATACAGAG | -0.223 |
| GCCGCAAC | 0.0476 |
| AGTACGTG | -0.0324 |
| ATCAACGC | -0.15 |
| GGTGCCCA | -0.219 |

From the supplement of paper PMC3334620
